“And” between values parts separate entries of the source, which are not always exact repeats. Equal values may be shown once. Among all 48,000 compounds or so, about 1,200 (2.5%) were called active. Not shown: some 2% with an inconclusive outcome.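 How the source made its calls: active means activation of at least 60% and not above a set upper limit (about 1 call in 100 departs from these limits); inconclusive means activation of 40% to 60%, or above that upper limit; inactive means activation under 40%.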 The list shows a part of the results.
Each compound was assayed against Probable G-protein coupled receptor 32 (Homo sapiens) (UniProt O75388) (assay: qHTS for Agonists of Human Resolvin D1 Receptor DRV1). Settings: CHO-K1 GPR32 beta-arrestin PathHunter luminescence, 90 min; at 76.9 µM; hits give high values; zero percent set by DMSO-only wells.
Sequence of UniProt O75388 (O75388 whole entry, looked up): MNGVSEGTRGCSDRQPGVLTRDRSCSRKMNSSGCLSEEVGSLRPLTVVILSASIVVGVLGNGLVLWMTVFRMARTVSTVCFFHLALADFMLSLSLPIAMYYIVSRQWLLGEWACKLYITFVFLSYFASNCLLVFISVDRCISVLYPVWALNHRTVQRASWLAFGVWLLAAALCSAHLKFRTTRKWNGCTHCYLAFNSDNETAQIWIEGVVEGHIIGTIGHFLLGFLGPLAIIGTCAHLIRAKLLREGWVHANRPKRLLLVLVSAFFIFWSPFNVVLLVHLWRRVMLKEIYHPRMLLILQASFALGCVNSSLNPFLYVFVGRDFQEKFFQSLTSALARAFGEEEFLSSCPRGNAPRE
How it was run: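 CHO-K1 cells stably expressing ProLink-tagged GPR32 and Enzyme Activator-tagged beta-arrestin were seeded at 2,500 cells/well overnight, exposed to compounds for 90 min at 37 °C, then read by beta-Gal complementation chemiluminescence after 1 h detection reagent.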
Further: 0% is about no effect.

activation, inactive:
Cc1ccc(S(=O)(=O)c2nc(-c3ccccc3F)oc2N2CCCCC2)cc1 -20.3%, CC(=O)Nc1ccc(C(=O)CSc2nnc(-c3ccccc3)n2-c2ccccc2)cc1 24.1%, Cc1ccc(NC2=C(c3ccc(C(F)(F)F)cc3)C(=O)c3ccccc32)cc1C -31.7%, Cc1ccc(OCCn2c(-c3ccc(Cl)cc3)nc3ccccc3c2=O)c(C)c1 -0.456%, CCCN(C(=O)c1cc2c(Cl)nc3ccccc3c2s1)c1cccc(C)c1 11.7%, COCCNC(=O)c1ccc(Cn2c(SCC(=O)NC(C)C)nc3ccccc3c2=O)cc1 7.97%, CCCN(CCC)C(=O)Cn1c(=O)n(Cc2ccc(C(=O)NCCc3ccc(OC)c(OC)c3)cc2)c(=O)c2ccccc21 0.262%, CCOc1cc(CNc2ccc(O)cc2)cc(Br)c1OCc1ccccc1 -25.7%, CCOc1ccccc1N(C)C(=O)c1nn(-c2ccc(C)cc2)c(=O)c2c1c1ccccc1n2C -1.01%, COc1cc(C=O)ccc1O 22.9%, COc1ccc(-c2cc3nc(C4CCN(C(=O)OC(C)(C)C)CC4)c(C(=O)Nc4cc(Cl)cc(Cl)c4)cn3n2)cc1 -7.55%, COc1ccc(CNC(=O)c2ccc3c(c2)N(Cc2ccccc2)C(=O)c2ccccc2S3(=O)=O)cc1 -30.3%, COc1ccc(-n2c(SCC(=O)N3CCC(C)CC3)nc3c([nH]c4ccccc43)c2=O)cc1 -2.4%, CC1=C(C(=O)Nc2ccc(C)cc2C)C(c2sccc2C)n2ncnc2N1 (stereo not given) -6.09%, COc1ccc(OC)c(NC(=O)c2csnn2)c1 -8.99%, COCCCNC(=O)c1cc(-c2cccnc2)nc2ccccc12 5.24%, CCOc1ccccc1-c1nnc(SCc2ccc(Cl)cc2)o1 -28.5%, CCOc1cccc(C2c3c(oc4ccccc4c3=O)C(=O)N2c2nc(C)c(C(=O)OC)s2)c1 (stereo not given) 1.39%, COc1ccc2cccc(CCNC(C)=O)c2c1 1.56%, O=C(Nc1nnc(S(=O)(=O)N2CCCc3ccccc32)s1)c1ccccc1Br 18.6%, O=C(COc1ccccc1F)Nc1ccc(C(=O)OCc2cc(=O)n3nc(C4CC4)sc3n2)cc1 -0.59%, CN(Cc1ccccc1)c1nc(-c2ccc(F)cc2)cc(C(F)(F)F)n1 -18.8%, Cc1ccn2c(c1)nc(=O)c1cc(S(=O)(=O)N3CCC(C)CC3)c(Cl)cc12 -21.1%, CCCCN(C)CCNC(=O)c1cc(-c2cccnc2)nc2ccc(S(=O)(=O)N3CCC(C)CC3)cc12 -12.3%, O=C(Nc1ccc(Cl)cc1Cl)c1cc(S(=O)(=O)N2CCN(c3ccccc3F)CC2)ccc1F -10.5%, CCc1ccc(-n2c(C)nnc2SCc2nc(-c3ccc(OC)cc3)no2)cc1 -2.74%, Cc1ccc(-c2cc3ncc(C(=O)c4cc([N+](=O)[O-])ccc4O)cn3n2)cc1 18.2%, Cc1ccc(NC(=O)CCSCCc2ccccn2)cc1 -15.8%, CCC(C(=O)Nc1cccc(-c2cn3cccnc3n2)c1)c1ccccc1 (stereo not given) 29.4%, CC1=C(C)C(=O)C(CCCCC#CCCCC#CCO)=C(C)C1=O -2.17% and -0.657%, COc1ccc(Br)cc1CNC(=O)CCCn1c(=O)c2cccn2c2ccccc21 -29.5%, CCC(Oc1ccccc1F)C(=O)Nc1c(C(=O)c2ccccc2)oc2ccccc12 (stereo not given) -28.2%, CC(C)(C)OC(=O)N1CCC(c2c(C(=O)NCc3ccc4c(c3)OCO4)cnn2-c2ccc(F)cc2F)CC1 -10%, O=C(Nc1ccc(Cl)cc1)C1CCN(c2nc3ccccc3n3cccc23)CC1 -21.8%, CC(C)NCC(O)c1ccc(NS(C)(=O)=O)cc1 (stereo not given) 4.77%, CN(C)c1ccc(C(CNS(=O)(=O)c2ccc(Cl)cc2)N2CCCC2)cc1 (stereo not given) -14.6%, COc1ccc(CCNC(=O)NCc2noc3ccccc23)c(OC)c1 -4.07%, CC1=C(C(=O)Nc2ccc(C)cc2C)C(c2ccccc2C)n2ncnc2N1 (stereo not given) -5.89%, COc1cccc(-c2nnc3n(Cc4ccc(F)cc4)c(=O)c4ccccc4n23)c1 -5.99%, Cc1nn(-c2ccc3nncn3n2)c(C)c1CCC(=O)Nc1ccc(OC(F)(F)F)cc1 -8.61%, Cc1ccc(-c2noc(CN(C3CCCCC3)S(=O)(=O)c3ccc(C)cc3)n2)cc1 -19.2%, COc1cc(NC(=O)c2noc3c2CCc2ccccc2-3)cc(OC)c1OC 19.9%, Cc1cccc(-c2nc3c(C#N)c[nH]n3c2NC2CCCCC2)c1 -15.2%, COc1cc(C(=O)NCC(c2cccnc2)N2CCN(c3ccc(F)cc3)CC2)cc(OC)c1OC (stereo not given) -4.65%, Cc1ccccc1CNC(=O)c1ccc(-n2c(C)cc3c2CCCC3)cc1 6.26%, COc1ccccc1CNC(=O)C1CCN(Cc2nc(-c3ccc(OC)c(OC)c3)oc2C)CC1 -14.5%, CC(N)(Cc1ccc(O)cc1)C(=O)O (stereo not given) -0.833%, Cc1ccc(Cl)cc1NC(=O)Cn1nc2c(cc1=O)CC(C)CC2 (stereo not given) 2.41%, CCOc1ccc(NC(=O)CN2C(=O)COc3ccc(S(=O)(=O)Nc4ccccc4)cc32)cc1 -6.11%, Cc1ccc(OCCSc2nc3ccccc3n2CC(=O)N2CCOCC2)c(C)c1 12%, COc1ccc(C(=O)Nc2ccc3nc4n(c(=O)c3c2)CCCCC4)cc1OC 11.1%, O=C(NNc1ncnc2c1cnn2-c1ccccc1)c1cccc(Cl)c1 24.9%, CCC(=O)N1CCc2cc(Br)cc(S(=O)(=O)N3CCC(C(=O)NC(C)(C)C)CC3)c21 -7.37%, COc1ccc(C(=O)NCc2nnnn2-c2ccc(C)c(C)c2)cc1 -13.7%, COc1ccc(Cl)c(Cn2c(NCCN)nc3c2c(=O)n(C)c(=O)n3C)c1 -19.7%, CC(C)Cn1c(=O)c2ccccc2n2c(-c3cccc(Cl)c3)nnc12 -0.202%, CCc1ccccc1NC(=O)CSc1nnc(-c2nonc2NC(C)=O)n1C -15%, CCOc1ccc(NC(=O)N2CCOc3ccccc32)cc1 -22%, N#Cc1ccc(-c2cccs2)nc1SCc1ccc(Cl)cc1Cl 5.16%, Cc1ccc(Cl)cc1Nc1nc2ccccc2n2c(C)nnc12 -4.31%, CCCOc1ccccc1Cn1c(=O)sc2ccccc21 -21.7%, CCCCc1nn2c(=O)cc(COC(=O)c3ccccc3NC(=O)C(C)(C)C)nc2s1 2.13%, CN(CCOc1ccc(NS(C)(=O)=O)cc1)CCc1ccc(NS(C)(=O)=O)cc1 -18.1%, CCOC(=O)c1ccc(NC(=O)CN2C(=O)c3cccnc3Oc3ccc(Cl)cc32)cc1 -19.1%, Cc1ccc(N2CCn3c2nc2c3c(=O)n(CCc3ccccc3)c(=O)n2C)cc1C -6.18%, Cc1[nH]c(=O)[nH]c(=O)c1C1N2CC3(C(C)C)CN1CC(C(C)C)(C2)C3=O (stereo not given) -3.2%, Cc1nc2sc(C(=O)NCc3ccc(Cl)cc3)c(NC(=O)c3ccccc3)c2c(C)c1C -1.18%, Cc1ccc(CNC(=O)CCCCn2c(=O)c3ccccc3n(Cc3ccc(Cl)cc3)c2=O)cc1 -5.88%, Cc1ccc(-n2ncc(C(=O)Nc3ccc(C)c(F)c3)c2C2CCN(C(=O)OC(C)(C)C)CC2)cc1C -7.27%, CCOc1cc(C2c3c(oc4ccccc4c3=O)C(=O)N2Cc2ccc3c(c2)OCO3)ccc1O (stereo not given) 13.2%, Cc1ccc(NC(=O)Cn2c(CCC(=O)O)ccc2-c2cccs2)cc1 -22.7%, COc1cccc(N2CCN(c3nc4ccc(C(=O)c5ccccc5)cc4n4c(C)nnc34)CC2)c1 -11.5%, CCC(C(=O)OCc1cc(=O)n2nc(CCOC)sc2n1)c1ccccc1 (stereo not given) -13.3%, Cc1ccccc1NC(=O)c1nc(-c2ccncc2)no1 0.996%, COC(=O)C(C)Sc1nc2c([nH]c3ccccc32)c(=O)n1-c1ccc(OC)cc1 (stereo not given) 7.61%, Cc1cc(C)c2c(=O)cc(C(=O)Nc3ccc(S(=O)(=O)Nc4nc(C)cc(C)n4)cc3)oc2c1 -6.81%, Cc1ccc(-c2cn3c(n2)sc2cc(C(=O)N4CCCCC4)ccc23)cc1 6.06%, Cc1ccc(NC(=O)NCc2cccn2Cc2ccccc2)cc1F -8.83%, O=C(Nc1ccc2nc(SCC(=O)N3CCCC3)sc2c1)c1ccc(F)cc1 -4.15%, CCOc1ccccc1NC(=O)Cn1c(=O)n(Cc2ccccc2)c(=O)c2c(C)c(C(=O)N(C)C)sc21 -24.5%, CCN(CC)C(=O)CSc1nc2cc3c(cc2c(=O)n1Cc1ccc(C(=O)NCCc2ccc(OC)c(OC)c2)cc1)OCO3 -23.8%, COc1cc(Cl)c(C)cc1NC(=O)c1cn(CC(C)C)c(=O)c2cc(OC)c(OC)cc12 7.68%, COc1ccc(CNC(=O)CCCn2c(SCC(N)=O)nc3cc4c(cc3c2=O)OCO4)cc1 -12.3%, Cc1cc(Nc2cccc(Cl)c2C)n2nc(Cc3ccccc3)nc2n1 -3.99%, CC(NC(=O)c1ccccc1)c1nc2ccccc2n1Cc1ccc(Cl)cc1 (stereo not given) -19.5%

— PubChem BioAssay AID1346428 (National Center for Advancing Translational Sciences (NCATS), 2018)
